From US20070004634A1 (Novo Nordisk A/S, priority 1998, published 2007)
Read-outs that look alike come from different tables or passages of the source. For part of these data: Not every detail of the peptide structures is certain; ends, links or a residue may be inferred. For part of these data: At least one compound was matched to its structure with a doubt left. Some results were stated once for a whole list of compounds, not compound by compound. Positions of bridges follow the written chain, without caps; N, C: chain ends. Residues, ends and D or L forms follow the SMILES beside them. No end group written: not given here.

Legend:
[1] = system: FDC-P2 cells expressing the IL-3 and human IGF-1R receptors; test: IGF-1 proliferation assay in FDC-P2 cells, agonist format
MCF-7 cells [2] = test: MCF-7 cell proliferation assay, IGF-1R agonist format; format: cell-based, human; details: agonist effect
Description: ; FIGS. 65A-65F), and were used for subsequent experiments.

MCF-7 cells [3] = details: MCF-7 cell proliferation, antagonist effect
[4] = system: free fat cells (adipocytes); test: Adipocyte / free fat cell (FFC) assay, 3H glucose incorporation into lipid; design: agonist activity (class symbols quoted in text): key to the marks not given beside the values
[5] = biological target: T1, soluble HIR ectodomain (sIR) (Homo sapiens, UniProt P06213); test: Fluorescence polarization, competition with FITC-RP9 for sIR; format: binding; details: Hill slope, target sIR, label FITC-RP9
T1 construct: soluble HIR ectodomain (sIR); Kristensen et al., 1998

[6] = biological target: T2, soluble human insulin receptor-immunoglobulin heavy chain chimera (sIR-Fc) (Homo sapiens, UniProt P06213); test: TR-FRET competition with biotinylated RP9 (b-RP9) for sIR-Fc; format: binding; details: Hill slope, target sIR-Fc, label b-RP9
T2 construct: replacing the transmembrane domain and the intracellular domain of IR with constant domains from immunoglobulin Fc or λ subunits; made in house; host or cells: human embryonic kidney 293 cells (Bass et al.)

[7] = biological target: T2, soluble human insulin receptor-immunoglobulin heavy chain chimera (sIR-Fc); test: TR-FRET competition with biotinylated S175 (b-S175) for sIR-Fc; format: binding; details: Hill slope, target sIR-Fc, label b-S175
[8] = biological target: His-tagged soluble recombinant human IGF-IR (srhIGF-1R-his) (Homo sapiens, UniProt P08069); test: ALPHAScreen competition, b-hIGF-1 binding to srhIGF-1R-his; details: read-out: Binding IC50
IR = IR (Homo sapiens, UniProt P06213); test: IR-IC50 Biacore; design: replacing the transmembrane domain and the intracellular domain of IR with constant domains from immunoglobulin Fc or λ subunits; made in house; host or cells: human embryonic kidney 293 cells (Bass et al.)
IGF-1R [9] = biological target: T3, IGF-1R (Homo sapiens, UniProt P08069); test: TR-FRET competition with biotinylated-20E2 for rhIGF-1R
IGF-1R [10] = biological target: T3, IGF-1R; test: TR-FRET dissociation of biotinylated-20E2 from rhIGF-1R; format: binding; details: peptides 100 μM, IGF-1 30 μM
Description: Best fit non-linear regression analysis of the data, was used to determine dissociation rate constants. Each data point represents a single observation. […] Reactions were allowed to reach equilibrium for 6 h at RT.

[11] = biological target: T2, soluble human insulin receptor-immunoglobulin heavy chain chimera (sIR-Fc); test: Fluorescence polarization, competition with FITC-RP9 for sIR-Fc; format: binding; details: for IC50: vs. FITC-RP9, read-out: FP sIR-Fc IC50

His-tagged soluble recombinant human IGF-IR (srhIGF-1R-his), sequence (P08069 31-736 limits assumed): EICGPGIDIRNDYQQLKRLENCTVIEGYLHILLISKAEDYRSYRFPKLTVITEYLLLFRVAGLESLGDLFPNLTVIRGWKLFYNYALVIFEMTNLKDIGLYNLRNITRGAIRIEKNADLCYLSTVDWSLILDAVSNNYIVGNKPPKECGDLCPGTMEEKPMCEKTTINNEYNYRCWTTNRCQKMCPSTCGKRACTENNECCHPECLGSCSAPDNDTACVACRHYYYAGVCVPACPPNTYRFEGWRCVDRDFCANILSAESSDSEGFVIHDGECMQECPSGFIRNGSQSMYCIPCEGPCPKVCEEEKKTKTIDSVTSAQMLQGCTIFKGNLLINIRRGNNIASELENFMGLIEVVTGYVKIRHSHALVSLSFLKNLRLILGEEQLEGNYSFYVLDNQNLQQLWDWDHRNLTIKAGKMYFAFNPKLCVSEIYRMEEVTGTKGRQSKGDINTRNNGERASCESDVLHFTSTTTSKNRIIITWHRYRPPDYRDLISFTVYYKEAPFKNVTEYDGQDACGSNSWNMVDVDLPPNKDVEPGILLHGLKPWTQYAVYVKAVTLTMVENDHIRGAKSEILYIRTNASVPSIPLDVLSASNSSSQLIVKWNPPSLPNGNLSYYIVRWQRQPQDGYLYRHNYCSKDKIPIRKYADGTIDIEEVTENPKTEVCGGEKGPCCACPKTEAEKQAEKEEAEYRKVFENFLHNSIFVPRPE
His-tagged soluble recombinant human IGF-IR (srhIGF-1R-his), sequence (P08069 741-935 limits assumed): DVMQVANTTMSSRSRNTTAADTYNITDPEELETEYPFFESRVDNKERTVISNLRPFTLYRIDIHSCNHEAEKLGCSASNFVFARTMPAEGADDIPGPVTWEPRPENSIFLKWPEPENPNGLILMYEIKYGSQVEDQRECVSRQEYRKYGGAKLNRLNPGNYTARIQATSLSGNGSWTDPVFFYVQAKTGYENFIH
T2 sequence (P06213 28-758 limits assumed, stated change not applied): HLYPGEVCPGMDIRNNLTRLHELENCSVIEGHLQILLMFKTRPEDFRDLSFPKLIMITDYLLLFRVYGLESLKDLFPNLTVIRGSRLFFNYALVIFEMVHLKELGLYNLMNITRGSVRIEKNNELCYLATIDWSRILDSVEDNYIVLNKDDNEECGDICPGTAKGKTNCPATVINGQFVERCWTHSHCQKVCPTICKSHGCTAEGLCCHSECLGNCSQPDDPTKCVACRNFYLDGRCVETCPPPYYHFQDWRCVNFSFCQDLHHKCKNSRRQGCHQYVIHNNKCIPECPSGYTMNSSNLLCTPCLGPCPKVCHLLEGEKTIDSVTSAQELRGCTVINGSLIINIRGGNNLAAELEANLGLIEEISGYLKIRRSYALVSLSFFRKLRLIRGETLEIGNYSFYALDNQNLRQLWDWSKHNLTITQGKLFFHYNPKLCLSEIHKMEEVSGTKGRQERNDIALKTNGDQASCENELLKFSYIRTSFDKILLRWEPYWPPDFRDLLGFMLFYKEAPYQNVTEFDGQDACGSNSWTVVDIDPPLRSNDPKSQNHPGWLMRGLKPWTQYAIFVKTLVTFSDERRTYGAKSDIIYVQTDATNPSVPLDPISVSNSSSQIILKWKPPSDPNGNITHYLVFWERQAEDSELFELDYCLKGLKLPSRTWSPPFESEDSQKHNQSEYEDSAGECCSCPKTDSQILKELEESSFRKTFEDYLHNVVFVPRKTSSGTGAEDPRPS
T2 sequence (P06213 763-956 limits assumed, stated change not applied): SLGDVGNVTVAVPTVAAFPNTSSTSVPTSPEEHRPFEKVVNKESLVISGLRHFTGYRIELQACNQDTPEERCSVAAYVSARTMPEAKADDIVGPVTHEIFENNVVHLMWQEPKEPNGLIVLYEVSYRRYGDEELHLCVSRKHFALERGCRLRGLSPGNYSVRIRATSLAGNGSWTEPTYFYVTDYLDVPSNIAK
IR, sequence (P06213 28-758 limits assumed): as the sequence (P06213 28-758 limits assumed, stated change not applied) above
IR, sequence (P06213 763-1382 limits assumed): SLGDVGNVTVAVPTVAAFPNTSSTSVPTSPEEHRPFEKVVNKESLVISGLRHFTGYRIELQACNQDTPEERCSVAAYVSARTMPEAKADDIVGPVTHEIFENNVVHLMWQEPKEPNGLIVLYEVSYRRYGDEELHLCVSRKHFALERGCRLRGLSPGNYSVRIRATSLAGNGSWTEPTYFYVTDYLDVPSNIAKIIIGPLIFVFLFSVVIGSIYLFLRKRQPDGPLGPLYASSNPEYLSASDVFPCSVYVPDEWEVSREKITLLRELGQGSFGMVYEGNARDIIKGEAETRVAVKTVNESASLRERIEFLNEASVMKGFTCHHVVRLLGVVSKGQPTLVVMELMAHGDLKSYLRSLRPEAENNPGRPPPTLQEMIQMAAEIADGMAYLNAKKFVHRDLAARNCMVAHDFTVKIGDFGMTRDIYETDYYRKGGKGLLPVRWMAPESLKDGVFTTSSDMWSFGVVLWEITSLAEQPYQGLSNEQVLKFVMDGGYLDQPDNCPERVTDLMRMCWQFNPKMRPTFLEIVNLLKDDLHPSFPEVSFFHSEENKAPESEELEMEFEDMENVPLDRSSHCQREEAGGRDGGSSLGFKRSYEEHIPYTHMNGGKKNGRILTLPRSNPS
T1 sequence (P06213 28-758 limits assumed): as the sequence (P06213 28-758 limits assumed, stated change not applied) above
T1 sequence (P06213 763-956 limits assumed): as the sequence (P06213 763-956 limits assumed, stated change not applied) above

WLDQERAWLWCEISGRGCLSGGSGGSGIISQSCPESFYDWFAGQVSDPWWCW (disulfide 11-18, 33-51 (inferred)) [Peptide D815-6-G33]
agonist activity at IGF-1R, in words [1]: inactive as an agonist

CC[C@H](C)[C@@H]1NC(=O)[C@H](CCC(=O)O)NC(=O)[C@@H](NC(=O)[C@H](Cc2c[nH]c3ccccc23)NC(=O)[C@H](CC(C)C)NC(=O)[C@H](Cc2c[nH]c3ccccc23)NC(=O)[C@H](C)NC(=O)[C@H](CCCNC(=N)N)NC(=O)[C@H](CCC(=O)O)NC(=O)[C@H](CCC(N)=O)NC(=O)[C@H](CC(=O)O)NC(=O)[C@H](CC(C)C)NC(=O)[C@@H](N)Cc2c[nH]c3ccccc23)CSSC[C@@H](C(=O)N[C@@H](CC(C)C)C(=O)N[C@@H](CO)C(=O)O)NC(=O)CNC(=O)[C@H](CCCNC(=N)N)NC(=O)CNC(=O)[C@H](CO)NC1=O [rD815]
Max Action ([1]; agonist format): >50%
EC50 ([1]; read-out: nM ED50 Growth, agonist format): 500 nM

EGYSWLRDVLMEKQAQLKREGSVGRQE [RP56]
MCF-7 Agonist (MCF-7 cells [2]): No
MiaPaCa Antagonist (MiaPaCa cells; MiaPaCa cell proliferation, antagonist effect): +
IC50 (MiaPaCa cells; read-out: Cellular IC50, MiaPaCa cells, block of IGF-1 activity): 9.4 µM
MCF-7 Antagonist (MCF-7 cells [3]): No

CC(C)C[C@H](NC(=O)[C@H](CCC(N)=O)NC(=O)[C@H](CCCNC(=N)N)NC(=O)[C@H](CCC(=O)O)NC(=O)[C@H](Cc1ccccc1)NC(=O)[C@H](Cc1c[nH]c2ccccc12)NC(=O)[C@H](CC(=O)O)NC(=O)[C@H](Cc1ccc(O)cc1)NC(=O)[C@H](Cc1ccccc1)NC(=O)[C@@H](N)CO)C(=O)NCC(=O)O [Peptide S391]
FFC ([4]; free fat cell assay potency class, Table 7): +
Hill, sIR, FITC-RP9, FP [5]: −0.49
Hill, sIR-Fc, b-RP9, FRET [6]: −0.56
Hill, sIR-Fc, b-S175, FRET [7]: −0.59

CC(C)C[C@H](NC(=O)[C@H](CS)NC(=O)[C@H](CO)NC(=O)[C@H](Cc1ccc(O)cc1)NC(=O)[C@H](Cc1ccccc1)NC(=O)[C@@H](N)[C@@H](C)O)C(=O)N[C@@H](C)C(=O)N[C@@H](CO)C(=O)N[C@@H](CC(C)C)C(=O)N[C@@H](CC(C)C)C(=O)N[C@H](C(=O)NCC(=O)N[C@H](C(=O)N1CCC[C@H]1C(=O)N[C@@H](CCC(N)=O)C(=O)N1CCC[C@H]1C(=O)N[C@@H](CC(N)=O)C(=O)N[C@@H](CCCNC(=N)N)C(=O)NCC(=O)N1CCC[C@H]1C(=O)N[C@@H](Cc1c[nH]c2ccccc12)C(=O)N[C@@H](CCC(=O)O)C(=O)N[C@@H](CCCNC(=N)N)C(=O)N[C@@H](CS)C(=O)N[C@@H](CCCNC(=N)N)C(=O)O)[C@@H](C)O)[C@@H](C)O [RP6] (H-TFYSCLASLLTGTPQPNRGPWERCR-OH; N-terminus and C-terminus assumed)
IC50 ([8]; Table 26): 0.35 µM

CC(C)[C@@H]1NC(=O)[C@H](CCC(N)=O)NC(=O)CNC(=O)[C@H](C)NC(=O)[C@H](Cc2ccccc2)NC(=O)[C@H](Cc2c[nH]c3ccccc23)NC(=O)[C@H](CC(=O)O)NC(=O)[C@H](Cc2ccc(O)cc2)NC(=O)[C@H](Cc2ccccc2)NC(=O)[C@H](CO)NC(=O)[C@H](CCC(=O)O)NC(=O)[C@@H]2CCCN2C(=O)[C@@H](NC(=O)[C@H](CO)NC(=O)[C@H](CCC(N)=O)NC(=O)[C@H](CO)NC(=O)[C@H](Cc2c[nH]cn2)NC(=O)CN)CSSC[C@@H](C(=O)N[C@@H](Cc2c[nH]c3ccccc23)C(=O)O)NC(=O)[C@H](Cc2c[nH]c3ccccc23)NC(=O)[C@H](Cc2c[nH]c3ccccc23)NC(=O)[C@@H]2CCCN2C(=O)[C@H](CC(=O)O)NC(=O)[C@H](CO)NC1=O [NG-G33] (HELM PEPTIDE1{G.H.S.Q.S.C.P.E.S.F.Y.D.W.F.A.G.Q.V.S.D.P.W.W.C.W}$PEPTIDE1,PEPTIDE1,6:R3-24:R3$$$V2.0; N-terminus and C-terminus assumed; bridges inferred)
IC50 (IR): 2 to 4 µM

CC(C)C[C@H](NC(=O)[C@H](CCC(=O)O)NC(=O)[C@H](C)NC(=O)[C@@H](NC(=O)[C@H](Cc1ccccc1)NC(=O)[C@H](Cc1c[nH]c2ccccc12)NC(=O)[C@H](CC(=O)O)NC(=O)[C@H](Cc1ccc(O)cc1)NC(=O)[C@H](Cc1ccccc1)NC(=O)[C@H](CC(N)=O)NC(=O)[C@H](C)NC(=O)[C@H](CC(N)=O)NC(=O)[C@H](CCCNC(=N)N)NC(=O)[C@H](CCC(N)=O)NC(=O)[C@H](CC(C)C)NC(=O)[C@H](Cc1c[nH]c2ccccc12)NC(=O)[C@H](CC(=O)O)NC(=O)[C@@H](NC(=O)[C@H](CCCNC(=N)N)NC(=O)CN)C(C)C)C(C)C)C(=O)NCC(=O)O [Peptide S175]
agonist activity (class symbols quoted in text) ([4]; FFC, refers to Table 7): +++
FFC ([4]; free fat cell assay class, Table 9): +++
EC50 ([1]; read-out: ED50, agonist activity at IGF-1R): > 10000 nM

CC[C@H](C)[C@@H]1NC(=O)[C@H](CCC(=O)O)NC(=O)[C@@H](NC(=O)[C@H](Cc2c[nH]c3ccccc23)NC(=O)[C@@H](NC(=O)[C@H](Cc2c[nH]c3ccccc23)NC(=O)[C@H](C)NC(=O)[C@H](CCCNC(=N)N)NC(=O)[C@H](CCC(=O)O)NC(=O)[C@H](CCC(N)=O)NC(=O)[C@H](CCC(=O)O)NC(=O)[C@H](CC(C)C)NC(=O)[C@@H](N)Cc2c[nH]c3ccccc23)[C@@H](C)CC)CSSC[C@@H](C(=O)N[C@@H](CCCNC(=N)N)C(=O)N[C@@H](C)C(=O)O)NC(=O)CNC(=O)[C@H](CO)NC(=O)CNC(=O)[C@H](CCC(N)=O)NC1=O [Peptide D8B12] (HELM PEPTIDE1{W.L.E.Q.E.R.A.W.I.W.C.E.I.Q.G.S.G.C.R.A}$PEPTIDE1,PEPTIDE1,11:R3-18:R3$$$V2.0)
IC50 (IGF-1R [9]; competitor vs b-20E2 on rhIGF-1R): 11.3 µM
effect on the rate of dissociation of b-20E2 from IGF-1R (IGF-1R [10]): significant differences in the rate of dissociation

CC[C@H](C)[C@H](NC(=O)CN)C(=O)N[C@H](C(=O)N[C@@H](CO)C(=O)N[C@@H](CCC(N)=O)C(=O)N[C@@H](CO)C(=O)N[C@H]1CSSC[C@@H](C(=O)N[C@@H](Cc2c[nH]c3ccccc23)C(=O)O)NC(=O)[C@H](Cc2c[nH]c3ccccc23)NC(=O)[C@H](Cc2c[nH]c3ccccc23)NC(=O)[C@@H]2CCCN2C(=O)[C@H](CC(=O)O)NC(=O)[C@H](CO)NC(=O)[C@H](C(C)C)NC(=O)[C@H](CCC(N)=O)NC(=O)CNC(=O)[C@H](C)NC(=O)[C@H](Cc2ccccc2)NC(=O)[C@H](Cc2c[nH]c3ccccc23)NC(=O)[C@H](CC(=O)O)NC(=O)[C@H](Cc2ccc(O)cc2)NC(=O)[C@H](Cc2ccccc2)NC(=O)[C@H](CO)NC(=O)[C@H](CCC(=O)O)NC(=O)[C@@H]2CCCN2C1=O)[C@@H](C)CC [Peptide G33] (HELM PEPTIDE1{G.I.I.S.Q.S.C.P.E.S.F.Y.D.W.F.A.G.Q.V.S.D.P.W.W.C.W}$PEPTIDE1,PEPTIDE1,7:R3-25:R3$$$V2.0; N-terminus and C-terminus assumed; bridges inferred)
IC50 [11]: 0.139 µM
IC50 ([8]; Table 27): 0.6 µM
IC50 ([8]; Table 29): 0.6 µM

SQAGSAFYAWFDQVLRTV [RP15]
binding to IGF-1R compared with IR, in words (IGF-1R [9]; TR-FRET (rhIGF-1R, b-20E2) versus FP (sIR-Fc), summary of Table 22): high binding ratios for IGF-1R over IR
IC50 (IGF-1R [9]; read-out: TR-FRET rhIGF-1R IC50, vs. b-20E2): 0.706 µM
potency / affinity at IR, in words ([11]; FP with FITC-RP9, summary of Table 22): high affinities for IR
Bndg Ratio IGF-1R/IR ([11]; higher values indicated higher affinity for IR than IGF-1R): 25
IC50 [11]: 0.028 µM

CC(C)C[C@@H]1NC(=O)CNC(=O)[C@@H](NC(=O)[C@H](Cc2ccc(O)cc2)NC(=O)[C@@H](N)Cc2ccccc2)CSSC[C@@H](C(=O)N[C@@H](CO)C(=O)NCC(=O)O)NC(=O)[C@H](Cc2ccc(O)cc2)NC(=O)CNC(=O)[C@H](Cc2ccccc2)NC(=O)[C@H](CC(C)C)NC(=O)[C@H](C)NC(=O)[C@H](C)NC(=O)CNC(=O)[C@H](Cc2c[nH]c3ccccc23)NC(=O)[C@H](CO)NC(=O)[C@H](CC(C)C)NC(=O)[C@H](CCC(=O)O)NC(=O)[C@H](CCC(=O)O)NC1=O [KCG7] (HELM PEPTIDE1{F.Y.C.G.L.E.E.L.S.W.G.A.A.L.F.G.Y.C.S.G}$PEPTIDE1,PEPTIDE1,3:R3-18:R3$$$V2.0; N-terminus and C-terminus assumed; bridges inferred)
IC50 (IR): > 1 µM
